{"source": "ChEMBL document CHEMBL4888484", "about": "“Replenishing the malaria drug discovery pipeline: Screening and hit evaluation of the MMV Hit Generation Library 1 (HGL1) against asexual blood stage Plasmodium falciparum ,using a nano luciferase reporter read-out” (2022)", "note": "Out of some 150,000 compounds screened, about 540 (0.36%) showed an effect of 50% or more. The list shows a part of the results."}
{"system": "Plasmodium falciparum", "assay": "Primary screen in NF54 nanoGlo assay, in single point, at 2uM, 72h; a lower Z score goes with more inhibition", "format": "functional, Erythrocyte", "settings": "timepoint 72 hour", "units": {"% Inhibition": "%"}}
{"smiles": "Cc1cnccc1CNC(=O)[C@@H](C)Cn1cccn1", "% Inhibition": -1, "Z score": 0.1}
{"smiles": "Cc1cc(C(=O)N2CCCS2(=O)=O)c(C)n1C(C)C", "% Inhibition": 6, "Z score": -0.66}
{"smiles": "COCc1nocc1C(=O)NC[C@H]1CCC[C@@H]1O", "% Inhibition": -9, "Z score": 0.9}
{"smiles": "COc1cc2c(cc1OC)CN(CC(=O)Nc1ccc(C)cc1)[C@H](C(=O)NCCc1ccccc1)C2", "% Inhibition": 0, "Z score": 0.04}
{"smiles": "COc1nc2c(c(C)nn2-c2ccccc2)c(C)c1CCC(=O)NCCN1CCOCC1", "% Inhibition": 0, "Z score": 0.02}
{"smiles": "CCOC[C@H]1CCCN1Cc1ccn(CC)n1", "% Inhibition": 1, "Z score": -0.14}
{"smiles": "COCCNC(=O)CCc1c(-c2ccc(Cl)cc2)nc2ccc(-c3cc4ccccc4s3)cn12", "% Inhibition": -32, "Z score": 2.8}
{"smiles": "CC(=O)c1ccccc1C(=O)NCCCc1ncc[nH]1", "% Inhibition": -9, "Z score": 1.13}
{"smiles": "COc1ccc(CNC(=O)Cc2csc(-n3nc(C)c(Cl)c3C)n2)cc1", "% Inhibition": -1, "Z score": 0.18}
{"smiles": "CCOc1ccc(C(=O)N2CCC[C@@]3(C2)NC(=O)N(Cc2ccccc2)C3=O)cc1", "% Inhibition": -9, "Z score": 1.68}
{"smiles": "COC(=O)[C@@H]1C[C@@H](NC(=O)c2cccc(Cl)c2)CN1", "% Inhibition": -9, "Z score": 1.74}
{"smiles": "Cn1ncc(NC(=O)C(C)(C)Cc2ccc(O)cc2)c1C(F)F", "% Inhibition": -5, "Z score": 0.57}
{"smiles": "CN(Cc1ccco1)C1CCN(C(=O)OC(C)(C)C)CC1", "% Inhibition": -9, "Z score": 0.79}
{"smiles": "COc1nn(C)cc1NC(=O)N1C[C@H]2COC[C@@]2(c2ccccc2)C1", "% Inhibition": 2, "Z score": -0.35}
{"smiles": "Cc1csc(NC(=O)c2ccc(NC(=O)N[C@H]3CCS(=O)(=O)C3)cc2)n1", "% Inhibition": 9, "Z score": -1.11}
{"smiles": "CCCC[C@H](CC)c1nnc(NC(=O)CC(C)C)s1", "% Inhibition": -2, "Z score": 0.33}
{"smiles": "c1ccc2c(-c3nccn3CC[C@H]3CCOC3)ccnc2c1", "% Inhibition": -7, "Z score": 1.23}
{"smiles": "O=C(N[C@H]1CCOc2ccccc21)c1ccco1", "% Inhibition": -2, "Z score": 0.25}
{"smiles": "Cc1nn(-c2ncccn2)c2c1[C@@H](c1cccc(C(F)(F)F)c1)CC(=O)N2", "% Inhibition": 33, "Z score": -3.76}
{"smiles": "Cc1ccccc1CCCn1cnc(CCCO)c1", "% Inhibition": -18, "Z score": 3.37}
{"smiles": "CN1C(=O)c2cccn2C[C@@H]1CNC(=O)c1n[nH]c2c1COc1ccccc1-2", "% Inhibition": -12, "Z score": 2.29}
{"smiles": "Cc1cc(-c2nnc(NC(=O)COc3ccccc3F)o2)n(C)n1", "% Inhibition": -10, "Z score": 1.86}
{"smiles": "O=C(Cn1cnc2ccccc2c1=O)N(C1CCCC1)[C@H]1CCS(=O)(=O)C1", "% Inhibition": -43, "Z score": 5.08}
{"smiles": "CC1CN(C(=O)Cc2noc(C3CCc4ccccc4O3)n2)CC(C)O1", "note": "(stereo unspecified)", "% Inhibition": -3, "Z score": 0.45}
{"smiles": "CCO[C@H]1COC[C@@H]1NC(=O)Nc1cn(CC)nn1", "% Inhibition": -8, "Z score": 1.66}
{"smiles": "Cc1nc(C(=O)NCC2CCCC23NC(=O)NC3=O)c(C)s1", "note": "(stereo unspecified)", "% Inhibition": 1, "Z score": -0.13}
{"smiles": "CC(C)(C)c1ccc(-c2noc(Cn3c(=O)n(Cc4ccccc4)c(=O)c4sccc43)n2)cc1", "% Inhibition": -11, "Z score": 1.33}
{"smiles": "Fc1ccc(Nc2nc3c(s2)CCCC3)cc1", "% Inhibition": 34, "Z score": -4.37}
{"smiles": "CNC(=NCc1cccc(COCc2ccccc2)c1)NC", "% Inhibition": -2, "Z score": 0.45}
{"smiles": "c1cc(-c2nnc(-c3cccc(C4CCOC4)c3)o2)cc(C2CCOC2)c1", "note": "(stereo unspecified)", "% Inhibition": -18, "Z score": 2.18}
{"smiles": "CCCCNC(=O)CN(C)C1C2CCOC2C1(C)C", "note": "(stereo unspecified)", "% Inhibition": -8, "Z score": 1.01}
{"smiles": "CS(=O)(=O)N(CCN1CCCCC1)C1CN(C(=O)CC2CCCC2)C1", "% Inhibition": -9, "Z score": 1.19}
{"smiles": "Cc1cnc(OC(C)C)c(NC(=O)c2ccsc2C(F)F)c1", "% Inhibition": -5, "Z score": 0.84}
{"smiles": "NC(=NCCCC(=O)N1CCc2ccccc2C1)N1CCCCC1", "% Inhibition": 0, "Z score": 0.04}
{"smiles": "Cc1cc(C)c2c(c1)[C@@]1(CC(=O)Nc3c1cnn3C(C)C)C(=O)N2", "% Inhibition": -4, "Z score": 0.41}
{"smiles": "O=C(Nc1nnc([C@H]2CC(=O)N(c3ccc(OC(F)(F)F)cc3)C2)o1)c1ccccc1", "% Inhibition": -2, "Z score": 0.33}
{"smiles": "O=C(c1ncncc1Cl)N1CCCCCCC1", "% Inhibition": 35, "Z score": -3.94}
{"smiles": "COc1ccc(CN2CCn3c(n[nH]c3=O)C2)cc1Cn1nc(C)cc1C", "% Inhibition": -4, "Z score": 0.66}
{"smiles": "CC1(C)C[C@H](NCC2CCCCC2)[C@@]2(CCC(=O)NCc3ccco3)CC[C@](C)(O)C[C@@H]12", "% Inhibition": -13, "Z score": 1.95}
{"smiles": "CCc1cccc(NC(=O)N2CC[C@H](N3CCN(C)CC3)[C@H](CCC(=O)O)C2)c1", "% Inhibition": -5, "Z score": 0.85}
{"smiles": "CNC(=O)[C@@H]1C[C@@H](NCc2ccc(C(C)C)cc2)CN1C(C)C", "% Inhibition": 24, "Z score": -3.07}
{"smiles": "CC1=C(CN2CCO[C@H](C(=O)N(C)C)C2)C(C)(C)CCC1", "% Inhibition": -22, "Z score": 2.35}
{"smiles": "CCN(CC)CCNc1nnc(-c2nc(C3CC3)no2)c2ccccc12", "% Inhibition": -12, "Z score": 1.4}
{"smiles": "Cc1cc(Cl)cc(C(=O)NCC2CCCC2NS(C)(=O)=O)c1", "note": "(stereo unspecified)", "% Inhibition": 3, "Z score": -0.35}
{"smiles": "COc1ccc(OC)c(-c2nc3c([nH]2)c(-c2cccnc2)nn3C)c1", "% Inhibition": 18, "Z score": -2.29}
{"smiles": "CCN1CCN(C(=O)c2nc(-c3nn(-c4ccc(C)cc4)c(=O)n(CC)c3=O)no2)CC1", "% Inhibition": 7, "Z score": -1.23}
{"smiles": "CCn1cc(S(=O)(=O)NC(=O)c2cccc(Cl)c2C)cn1", "% Inhibition": -3, "Z score": 0.37}
{"smiles": "CC(C)CCC(=O)N1CCC[C@H](N(CCN2CCCCC2)S(C)(=O)=O)C1", "% Inhibition": -17, "Z score": 2.32}
{"smiles": "Cc1ccc(-c2noc(-c3cn(-c4ccc(C)c(C)c4)c(=O)c4ccccc34)n2)cc1C", "% Inhibition": -11, "Z score": 1.69}
{"smiles": "Cc1nc(C(C)C)sc1[C@H](C)N(C)Cc1ncc(C2CC2)o1", "% Inhibition": -12, "Z score": 2.32}
{"smiles": "Cc1cc(-c2cn3cc(C(=O)N(C)[C@@H](C)CCO)nc3c(=O)n2C)c(C)o1", "% Inhibition": 0, "Z score": 0.06}
{"smiles": "CCC(C)NC(=O)C(NC(=O)c1ccc(OC)cc1)C1CCN(C(=O)c2cccc(F)c2)CC1", "note": "(stereo unspecified)", "% Inhibition": -24, "Z score": 2.1}
{"smiles": "CC(=O)N1CC(N[C@@H](C)c2nc(C(F)(F)F)cs2)C1", "% Inhibition": 9, "Z score": -1.55}
{"smiles": "CC(C)(CN1CCOCC1)Nc1ncc(C#N)c(N)n1", "% Inhibition": -4, "Z score": 0.53}
{"smiles": "Cc1nc(C(=O)NCCc2ccccc2)co1", "% Inhibition": 2, "Z score": -0.2}
{"smiles": "CCN(CC)C(=O)Cn1cc(-c2nc(CN3CCOCC3)no2)nn1", "% Inhibition": -19, "Z score": 2.26}
{"smiles": "Cn1nc(CN(C2CCCC2)S(C)(=O)=O)c2c1CCC2", "% Inhibition": -12, "Z score": 1.98}
{"smiles": "O=C(c1cscn1)N1CCOc2ccccc2[C@@H]1CO", "% Inhibition": -10, "Z score": 1.33}
{"smiles": "CC1=C[C@@H](CN2CCOCC2)[C@H](C(C)C)C[C@H]1Cc1nnc(-c2ccc(N(C)C)cc2)o1", "% Inhibition": -1, "Z score": 0.09}
{"smiles": "O=C(O)C1=C[C@@H](c2ccc(Cl)cc2)n2ncc(C(=O)Nc3ccc(F)cc3)c2N1", "% Inhibition": -4, "Z score": 0.65}
{"smiles": "Cc1cc(C)c2c(c1)N(S(=O)(=O)c1c[nH]c(C(=O)O)c1)CCC2", "% Inhibition": 33, "Z score": -3.71}
{"smiles": "Cc1noc(C)c1CCCNC(=O)c1ccc(N2CC[C@H](N(C)C)C2)nc1", "% Inhibition": -10, "Z score": 1.28}
{"smiles": "Cc1c(-c2cc(C(=O)N3[C@@H]4CC[C@H]3CN(C)C(=O)C4)no2)cnn1C", "% Inhibition": -7, "Z score": 0.65}
{"smiles": "O=C(O)C1(n2cnc3ccccc32)CCN(C/C=C/c2ccco2)CC1", "% Inhibition": -14, "Z score": 1.37}
{"smiles": "O=C(Nc1ccc(N2CCOCC2)cc1)c1ccc2nsnc2c1", "% Inhibition": -11, "Z score": 1.02}
{"smiles": "Cc1nnc(NC(=O)c2cc(=O)c(OCc3ccc(F)cc3)c[nH]2)s1", "% Inhibition": 11, "Z score": -1.47}
{"smiles": "C[C@@H](c1ccccn1)N(C)Cc1cnc(C2CCCCC2)s1", "% Inhibition": -3, "Z score": 0.25}
{"smiles": "C[C@H]1CCCCN1C(=O)c1ccc(NC2CCOCC2)cc1", "% Inhibition": -9, "Z score": 1.37}
{"smiles": "CC1CCCN(C(=O)CC2CC3CCC2C3)C1", "note": "(stereo unspecified)", "% Inhibition": -12, "Z score": 1.32}
{"smiles": "Cc1ccc(-c2ccc(=O)[nH]n2)cc1S(=O)(=O)NC1CCCCC1", "% Inhibition": -34, "Z score": 2.99}
{"smiles": "CN(Cc1cscn1)S(=O)(=O)Cc1ccc(Cl)cc1F", "% Inhibition": -6, "Z score": 1.13}
{"smiles": "CO[C@H]1COCC[C@@H]1Nc1ccnc2ccc(C)cc12", "% Inhibition": -12, "Z score": 1.92}
{"smiles": "CCc1nc2nnc3c(=O)n(-c4ccc(C)c(C)c4)ccc3n2n1", "% Inhibition": -15, "Z score": 2.09}
{"smiles": "CCOCCc1nc(C)n(-c2cc(S(N)(=O)=O)ccc2F)n1", "% Inhibition": -13, "Z score": 1.18}
{"smiles": "COc1ncc(NC(=O)Nc2ccccc2OC)cn1", "% Inhibition": 0, "Z score": -0.05}
{"smiles": "COCCN(Cc1ccncc1Cl)C(C)(C)CO", "% Inhibition": -4, "Z score": 0.47}
{"smiles": "Cc1cc(C)n(-c2nnc(C)n2NC(=O)c2ccccc2Cl)n1", "% Inhibition": -16, "Z score": 2.22}
{"smiles": "Cc1cc(CN(C)C(=O)c2ccc(-c3nc(C)c4c(n3)CCCC4)cc2)no1", "% Inhibition": -2, "Z score": 0.38}
{"smiles": "COc1ccc(S(=O)(=O)Nc2c(C)cc(C)cc2C)cc1N(C)S(C)(=O)=O", "% Inhibition": -9, "Z score": 1.49}
{"smiles": "CCNC(=NCC(CC(C)O)c1ccccc1)N1CCOCC1", "note": "(stereo unspecified)", "% Inhibition": -3, "Z score": 0.29}
{"smiles": "Cc1ncc(C(=O)N2CCC[C@@]3(CCC(=O)N(CCc4ccccn4)C3)C2)cn1", "% Inhibition": -9, "Z score": 1.57}
{"smiles": "COc1ccc(C2=NN(c3ccccc3)[C@@H]3C(=O)N(c4cccc(Cl)c4)C(=O)[C@H]23)cc1", "% Inhibition": -2, "Z score": 0.46}
{"smiles": "NC(=O)N1C[C@@H]2CCC[C@]2(C(F)(F)F)C1", "% Inhibition": 2, "Z score": -0.42}
